{
  "source": "paper PMC4336329",
  "about": "(PLoS ONE, 2015)",
  "note": "The whole screen tested about 310,000 compounds, of which about 2,200 (0.71%) showed an effect of 50% or more. The effect is printed as a negative number. The list shows a part of the results.",
  "data": [
    {"target": "human ether-à-go-go-related gene (hERG) potassium channel (human, UniProt Q12809)", "sequence (Q12809 whole entry, looked up)": "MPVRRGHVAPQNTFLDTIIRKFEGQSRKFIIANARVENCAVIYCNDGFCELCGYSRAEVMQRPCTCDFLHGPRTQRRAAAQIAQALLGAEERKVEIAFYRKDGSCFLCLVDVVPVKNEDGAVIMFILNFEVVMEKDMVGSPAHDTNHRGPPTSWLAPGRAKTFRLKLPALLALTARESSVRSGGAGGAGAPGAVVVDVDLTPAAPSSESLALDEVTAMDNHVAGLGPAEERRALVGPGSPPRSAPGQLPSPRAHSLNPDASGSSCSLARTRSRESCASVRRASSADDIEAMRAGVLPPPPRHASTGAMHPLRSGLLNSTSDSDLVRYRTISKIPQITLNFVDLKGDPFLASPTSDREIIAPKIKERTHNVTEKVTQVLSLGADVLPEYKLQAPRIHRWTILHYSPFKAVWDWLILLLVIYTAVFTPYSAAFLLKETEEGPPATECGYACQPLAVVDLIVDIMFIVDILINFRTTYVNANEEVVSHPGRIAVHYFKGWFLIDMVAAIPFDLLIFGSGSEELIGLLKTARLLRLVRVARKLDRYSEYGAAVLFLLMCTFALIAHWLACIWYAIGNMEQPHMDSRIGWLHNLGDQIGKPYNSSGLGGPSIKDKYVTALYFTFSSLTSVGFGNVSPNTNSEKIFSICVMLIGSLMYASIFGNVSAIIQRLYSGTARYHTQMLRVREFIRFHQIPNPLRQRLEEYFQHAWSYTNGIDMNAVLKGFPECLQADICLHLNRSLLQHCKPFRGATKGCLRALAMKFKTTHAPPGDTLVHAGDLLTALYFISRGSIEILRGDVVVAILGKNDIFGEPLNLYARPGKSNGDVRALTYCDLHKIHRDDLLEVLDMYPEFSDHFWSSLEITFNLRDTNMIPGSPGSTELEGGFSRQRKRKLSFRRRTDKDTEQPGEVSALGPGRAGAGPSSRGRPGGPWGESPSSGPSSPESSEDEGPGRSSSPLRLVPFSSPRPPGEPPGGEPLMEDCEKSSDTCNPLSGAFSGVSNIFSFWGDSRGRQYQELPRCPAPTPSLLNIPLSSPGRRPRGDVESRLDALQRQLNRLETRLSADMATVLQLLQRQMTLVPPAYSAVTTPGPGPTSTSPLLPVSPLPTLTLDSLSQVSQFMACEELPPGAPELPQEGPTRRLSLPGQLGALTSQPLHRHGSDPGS", "assay": "primary screen, population patch clamp on CHO cells stably expressing hERG", "units": {"hERG current change (%, negative = inhibition) at 1uM": "%"}, "values": [
      {"molecule": "CCOP(=O)(O)c1ccccc1OCCCCCOc1ccccc1P(=O)(O)OCC", "hERG current change (%, negative = inhibition) at 1uM": 16.4},
      {"molecule": "Cc1cn(Cc2ccccc2Cn2cc(C)c(=O)[nH]c2=O)c(=O)[nH]c1=O", "hERG current change (%, negative = inhibition) at 1uM": 16.4},
      {"molecule": "COc1ccc2c(c1OC)C(=O)OC2Nc1nc(-c2ccc(-c3ccccc3)cc2)cs1", "note": "(stereo not shown)", "hERG current change (%, negative = inhibition) at 1uM": 14.4},
      {"molecule": "CNS(=O)(=O)c1cccc(C(=O)NCC2(N3CCOCC3)CCCCC2)c1", "hERG current change (%, negative = inhibition) at 1uM": 7.72},
      {"molecule": "CC(NC(=O)c1ccc(Cl)c(Cl)c1)c1ccc(-c2ccccc2)cc1", "note": "(stereo not shown)", "hERG current change (%, negative = inhibition) at 1uM": 13},
      {"molecule": "Cn1c2ccccc2c2cnn(CC(=O)O)c(=O)c21", "hERG current change (%, negative = inhibition) at 1uM": 11.8},
      {"molecule": "Cc1ccc(NS(=O)(=O)c2ccc(CCC(=O)NCc3ccccn3)cc2)cc1", "hERG current change (%, negative = inhibition) at 1uM": 10.3},
      {"molecule": "N#Cc1nc(-c2ccco2)oc1NCCCn1ccnc1", "hERG current change (%, negative = inhibition) at 1uM": -2.93},
      {"molecule": "COc1ccccc1N1CCN(C2CCCN(C(=O)c3csc(C)n3)C2)CC1", "note": "(stereo not shown)", "hERG current change (%, negative = inhibition) at 1uM": 2.35},
      {"molecule": "O=C(Oc1ccc2c(c1)O/C(=C\\c1ccncc1)C2=O)c1cccs1", "hERG current change (%, negative = inhibition) at 1uM": 6.43},
      {"molecule": "O=C(Nc1ccc(Cl)c(Cl)c1)c1ccccc1NC(=O)C1CC=CCC1C(=O)O", "note": "(stereo not shown)", "hERG current change (%, negative = inhibition) at 1uM": 9.35},
      {"molecule": "O=C(/C=C/c1ccc(Cl)c(Cl)c1)NCCCn1ccnc1", "hERG current change (%, negative = inhibition) at 1uM": -3.33},
      {"molecule": "CCN1CCN(S(=O)(=O)c2ccc(Cl)c(C(=O)NCc3ccco3)c2)CC1", "hERG current change (%, negative = inhibition) at 1uM": 4.34},
      {"molecule": "Cc1ccc(C)c(NC(=S)NNc2ccc(F)cc2F)c1", "hERG current change (%, negative = inhibition) at 1uM": 13.4},
      {"molecule": "COc1ccc(C(=O)NCc2nnc(SCC(=O)Nc3nnc(C)s3)o2)cc1OC", "hERG current change (%, negative = inhibition) at 1uM": 3.61},
      {"molecule": "O=C(Nc1ccccc1)Nc1nc(-c2ccc(Cl)cc2)cs1", "hERG current change (%, negative = inhibition) at 1uM": 18},
      {"molecule": "C#CCOCCOCCOCCNc1nc(N2CCOCC2)nc(N2CCN(C(=O)CCCCCCCCCCNC(=O)[C@H](CO)n3cc(CCCSC)nn3)CC2)n1", "hERG current change (%, negative = inhibition) at 1uM": 2.03},
      {"molecule": "Cc1cccc(NC(=O)c2cc(=O)c3ccccc3o2)n1", "hERG current change (%, negative = inhibition) at 1uM": 7.03},
      {"molecule": "CCc1c(C)nc(N2CCN(Cc3ccc4c(c3)OCO4)CC2)[nH]c1=O", "hERG current change (%, negative = inhibition) at 1uM": 10.9},
      {"molecule": "CC(C)NC(=O)c1ccc(CN2CCC(Cc3ccccc3)CC2)cc1", "hERG current change (%, negative = inhibition) at 1uM": -2.03},
      {"molecule": "CCCCc1nc2cc(C(=O)N3CCCC(OCCC)C3)ccc2o1", "note": "(stereo not shown)", "hERG current change (%, negative = inhibition) at 1uM": 9.37},
      {"molecule": "O=C(COc1ccccc1Cc1ccccc1)Nc1cccc(S(=O)(=O)N2CCOCC2)c1", "hERG current change (%, negative = inhibition) at 1uM": 2.76},
      {"molecule": "CN(CC(=O)Nc1ccc(Cl)cc1)C(=O)CCc1ccccc1", "hERG current change (%, negative = inhibition) at 1uM": 13.5},
      {"molecule": "Cc1ccc(N2CN(CCc3ccccc3)CNC2=S)cc1", "hERG current change (%, negative = inhibition) at 1uM": 14.7},
      {"molecule": "Cc1cc2nc(C3CCCN(C(=O)NCc4ccccc4)C3)[nH]c2cc1C", "note": "(stereo not shown)", "hERG current change (%, negative = inhibition) at 1uM": -11.1},
      {"molecule": "CC(=O)c1ccc([N+](=O)[O-])cc1", "hERG current change (%, negative = inhibition) at 1uM": 13.9},
      {"molecule": "O=C(CSc1nc2ccccc2o1)Nc1cc(C(F)(F)F)ccc1N1CCOCC1", "hERG current change (%, negative = inhibition) at 1uM": 3.84},
      {"molecule": "Cc1ccc(-c2csc(C(C#N)=C3CCCC3)n2)cc1", "hERG current change (%, negative = inhibition) at 1uM": 11.5},
      {"molecule": "Cc1cc(C)nc(SCCS(=O)Cc2ccc(Cl)cc2)n1", "note": "(stereo not shown)", "hERG current change (%, negative = inhibition) at 1uM": 8.82},
      {"molecule": "O=C(COC(=O)c1ccccc1Cl)Nc1nccs1", "hERG current change (%, negative = inhibition) at 1uM": 9.76},
      {"molecule": "Cc1cc([N+](=O)[O-])nn1CCCC(=O)Nc1cccnc1Cl", "hERG current change (%, negative = inhibition) at 1uM": 16.7},
      {"molecule": "CC(=O)N(c1cccc(Cl)c1)c1nc(C)cc(C)c1C#N", "hERG current change (%, negative = inhibition) at 1uM": 7.85},
      {"molecule": "COc1cc2[nH]c(=O)n(CCCCCC(=O)N3CC=C(c4ccccc4)CC3)c(=O)c2cc1OC", "hERG current change (%, negative = inhibition) at 1uM": 2.7},
      {"molecule": "Cc1sc(N)nc1-c1ccc(Oc2ccccc2)cc1", "hERG current change (%, negative = inhibition) at 1uM": 9.83},
      {"molecule": "Cc1ccc(S(=O)(=O)Nc2nc3ccc(N)cc3s2)cc1", "hERG current change (%, negative = inhibition) at 1uM": 5.34},
      {"molecule": "O=C(O)CCC1(c2ccccc2)NC(=O)NC1=O", "note": "(stereo not shown)", "hERG current change (%, negative = inhibition) at 1uM": 9.66},
      {"molecule": "Cn1nnnc1SCC(=O)Nc1ccc(Cl)cn1", "hERG current change (%, negative = inhibition) at 1uM": 15.4},
      {"molecule": "O=C(Nc1ccccc1)c1ccccc1NC(=O)c1ccccc1C(=O)O", "hERG current change (%, negative = inhibition) at 1uM": 11.9},
      {"molecule": "CCOC(=O)c1cnc(-n2cc(C)cn2)nc1Nc1ccccc1OCC", "hERG current change (%, negative = inhibition) at 1uM": 14.3},
      {"molecule": "Cc1cc(C(=O)O[C@H]2[C@H](Cc3ccccc3)NS(=O)(=O)[C@H]3C[C@@H]4C=C[C@]23O4)ccc1[N+](=O)[O-]", "hERG current change (%, negative = inhibition) at 1uM": -4.36},
      {"molecule": "COc1ccc(C(=O)c2nccc3cc(OC)c(OC)cc23)cc1OC", "hERG current change (%, negative = inhibition) at 1uM": 12.1},
      {"molecule": "C=CCN1C(=O)C2(NNc3ccccc3O2)c2ccccc21", "note": "(stereo not shown)", "hERG current change (%, negative = inhibition) at 1uM": 12.3},
      {"molecule": "CCn1c(SCCC(=O)O)nnc1-c1cccnc1", "hERG current change (%, negative = inhibition) at 1uM": 14.1},
      {"molecule": "COCC(C)NC(=O)C1CCN(S(=O)(=O)c2ccc3ccccc3c2)CC1", "note": "(stereo not shown)", "hERG current change (%, negative = inhibition) at 1uM": -0.421},
      {"molecule": "Cc1ccc(S(=O)(=O)N2CC(O)CC2C(=O)Nc2ccc3c(c2)CCC3)cc1", "note": "(stereo not shown)", "hERG current change (%, negative = inhibition) at 1uM": 3.79},
      {"molecule": "CCOC(=O)c1cccc(NC(=O)C2CCN(S(=O)(=O)c3cccs3)CC2)c1", "hERG current change (%, negative = inhibition) at 1uM": -8.58},
      {"molecule": "Cc1ccc(NC(=O)COC(=O)[C@H](C)N2C(=O)C3CC=CCC3C2=O)cc1S(=O)(=O)N(C)C", "note": "(stereo partly shown)", "hERG current change (%, negative = inhibition) at 1uM": 0.0871},
      {"molecule": "Cc1ccc(-n2cc(CCCCCCCCC(=O)O)nn2)cc1", "hERG current change (%, negative = inhibition) at 1uM": 2.07},
      {"molecule": "COC(=O)/C=C1/N/C(=N\\c2nc(C)cc(C)n2)N(c2ccccc2)C1=O", "hERG current change (%, negative = inhibition) at 1uM": 10.4},
      {"molecule": "O=C(COc1ccc([N+](=O)[O-])cc1)NN=C1CCCC1", "hERG current change (%, negative = inhibition) at 1uM": -3.09},
      {"molecule": "COc1ccccc1NS(=O)(=O)c1ccc(C(=O)NCC(c2ccccc2OC)N(C)C)cc1", "note": "(stereo not shown)", "hERG current change (%, negative = inhibition) at 1uM": 8.44},
      {"molecule": "Cc1cc(OC(C)C(=O)NCCc2c[nH]c3ccccc23)c2c(C)cc(=O)oc2c1", "note": "(stereo not shown)", "hERG current change (%, negative = inhibition) at 1uM": -1.63},
      {"molecule": "CN(Cc1ccccc1)C(=O)c1[nH]cnc1C(=O)Nc1ccccc1", "hERG current change (%, negative = inhibition) at 1uM": 11.6},
      {"molecule": "O=C(c1ccc2nccnc2c1)N1CCCC(N2CCN(c3ccc(F)cc3)CC2)C1", "note": "(stereo not shown)", "hERG current change (%, negative = inhibition) at 1uM": 0.174},
      {"molecule": "Nc1cc(C(=O)OCC(=O)NCCNC(=O)COC(=O)c2ccc(Cl)c(N)c2)ccc1Cl", "hERG current change (%, negative = inhibition) at 1uM": 13.7}
    ]}
  ]
}
